{
  "source": "the supplement of paper PMC3334620",
  "note": "The full ranking holds about 33,000 sequences; the median of “E-score (-0.5 to 0.5)” is about -0.032, and the highest 2% start at about 0.36. The list shows a part of the results.",
  "data": [
    {"biological_target": "T1, Sko1 (UniProt Q02100)", "T1 sequence": "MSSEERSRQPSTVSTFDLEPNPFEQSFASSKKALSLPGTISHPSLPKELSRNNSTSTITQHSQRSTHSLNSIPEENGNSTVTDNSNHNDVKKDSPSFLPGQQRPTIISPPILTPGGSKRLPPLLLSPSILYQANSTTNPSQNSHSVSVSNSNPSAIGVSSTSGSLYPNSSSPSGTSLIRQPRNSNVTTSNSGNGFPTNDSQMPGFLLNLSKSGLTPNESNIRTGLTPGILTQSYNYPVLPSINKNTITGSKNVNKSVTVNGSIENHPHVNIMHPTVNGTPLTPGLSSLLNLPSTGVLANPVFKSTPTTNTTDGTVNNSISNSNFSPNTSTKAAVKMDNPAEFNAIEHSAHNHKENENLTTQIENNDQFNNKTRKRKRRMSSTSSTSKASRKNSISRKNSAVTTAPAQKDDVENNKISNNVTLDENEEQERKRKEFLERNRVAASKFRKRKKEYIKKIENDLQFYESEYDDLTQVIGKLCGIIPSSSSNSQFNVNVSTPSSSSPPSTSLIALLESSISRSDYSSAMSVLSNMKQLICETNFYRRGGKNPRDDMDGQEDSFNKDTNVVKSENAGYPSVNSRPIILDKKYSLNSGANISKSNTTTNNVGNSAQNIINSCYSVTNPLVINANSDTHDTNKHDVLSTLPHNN", "experiment": "PBM E-score (8-mer binding enrichment) (E-score (-0.5 to 0.5)); higher = stronger / more preferred TF binding; most listed sequences are background and not binding sites", "settings": "protein concentration: 200 nM; construct: GST-full length", "in_short": "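Universal all-10-mer Agilent arrays, double-stranded by primer extension on fresh or once-stripped slides, were probed with about 100-200 nM GST-tagged yeast transcription factors made by PURExpress. Fluorescent anti-GST detected bound protein, and masliner normalised the scans. E-scores from the Universal PBM Analysis Suite were given to each ungapped eight-base word pooled with its reverse complement.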", "values": [
      {"sequence": "GTAGAGAC", "PBM E-score": -0.0355},
      {"sequence": "ATTTGGTC", "PBM E-score": 0.122},
      {"sequence": "ACATAACC", "PBM E-score": 0.0262},
      {"sequence": "ACGCATCC", "PBM E-score": -0.00397},
      {"sequence": "CAGCGTGG", "PBM E-score": -0.11},
      {"sequence": "CCTTTTGA", "PBM E-score": 0.0971},
      {"sequence": "GCGTACAA", "PBM E-score": 0.146},
      {"sequence": "CACGGCTC", "PBM E-score": -0.184},
      {"sequence": "ACTATGCG", "PBM E-score": -0.0229},
      {"sequence": "CTCGCATC", "PBM E-score": -0.096},
      {"sequence": "AGCATGAA", "PBM E-score": -0.0774},
      {"sequence": "AATGGTCT", "PBM E-score": -0.125},
      {"sequence": "ATGACCTC", "PBM E-score": 0.246},
      {"sequence": "GGGCAAGA", "PBM E-score": -0.0518},
      {"sequence": "ACTCAGCG", "PBM E-score": -0.3},
      {"sequence": "GATTAGAA", "PBM E-score": -0.0981},
      {"sequence": "CTTCAGAC", "PBM E-score": -0.144},
      {"sequence": "CTATGTTA", "PBM E-score": -0.0223},
      {"sequence": "CATGTACA", "PBM E-score": 0.0931},
      {"sequence": "CCGTTTAC", "PBM E-score": -0.125},
      {"sequence": "AACTGCGC", "PBM E-score": -0.0854},
      {"sequence": "AGGGGAAA", "PBM E-score": -0.175},
      {"sequence": "AATTGGCG", "PBM E-score": 0.242},
      {"sequence": "CCGTGACG", "PBM E-score": 0.396},
      {"sequence": "AAGATTTG", "PBM E-score": 0.079},
      {"sequence": "CAACGTCC", "PBM E-score": -0.0395},
      {"sequence": "GTAGCCAC", "PBM E-score": -0.062},
      {"sequence": "GATGATGA", "PBM E-score": 0.259},
      {"sequence": "ATTACTCC", "PBM E-score": 0.0425},
      {"sequence": "AAGATTGT", "PBM E-score": 0.0296},
      {"sequence": "GAGTAGGA", "PBM E-score": -0.281},
      {"sequence": "AAGATATC", "PBM E-score": -0.00929},
      {"sequence": "CAACTAGA", "PBM E-score": 0.115},
      {"sequence": "CTATTTGC", "PBM E-score": 0.0444},
      {"sequence": "CCTCGTTA", "PBM E-score": 0.0799},
      {"sequence": "CTTATATA", "PBM E-score": 0.247},
      {"sequence": "AAATTACA", "PBM E-score": 0.261},
      {"sequence": "CGCACTTC", "PBM E-score": 0.0725},
      {"sequence": "GCGGCTTA", "PBM E-score": -0.0704},
      {"sequence": "GTCAAATA", "PBM E-score": 0.219},
      {"sequence": "ACATCTTC", "PBM E-score": 0.0919},
      {"sequence": "AAGAGGCT", "PBM E-score": -0.146},
      {"sequence": "GGTCGGCA", "PBM E-score": -0.357},
      {"sequence": "GATCGCGC", "PBM E-score": -0.00925},
      {"sequence": "TCCCTAGA", "PBM E-score": -0.0439},
      {"sequence": "CAACCTGA", "PBM E-score": -0.0685},
      {"sequence": "CGTTCATA", "PBM E-score": 0.228},
      {"sequence": "CACGATAA", "PBM E-score": 0.171},
      {"sequence": "CATGCCGC", "PBM E-score": 0.196},
      {"sequence": "ACCGTTAA", "PBM E-score": -0.0408},
      {"sequence": "GAGTTTGA", "PBM E-score": 0.105},
      {"sequence": "ACCTGGCC", "PBM E-score": -0.213},
      {"sequence": "CATATACG", "PBM E-score": 0.347},
      {"sequence": "ACGGAAAC", "PBM E-score": 0.047},
      {"sequence": "AACAAGGA", "PBM E-score": 0.134},
      {"sequence": "GGAGCTCC", "PBM E-score": -0.186},
      {"sequence": "CCTGGGCG", "PBM E-score": -0.0762},
      {"sequence": "ATTTATCG", "PBM E-score": 0.0247},
      {"sequence": "CGAGTGCC", "PBM E-score": -0.181},
      {"sequence": "CCTACCAG", "PBM E-score": -0.256},
      {"sequence": "GCATACTA", "PBM E-score": -0.103},
      {"sequence": "CCTAGCTA", "PBM E-score": -0.165},
      {"sequence": "CCGGGTCA", "PBM E-score": -0.233},
      {"sequence": "CAGAAAGA", "PBM E-score": 0.0743},
      {"sequence": "CACATTTA", "PBM E-score": 0.0403},
      {"sequence": "TGAAATCA", "PBM E-score": 0.174},
      {"sequence": "CCCATTCA", "PBM E-score": -0.162},
      {"sequence": "ACTTGAAA", "PBM E-score": 0.0359},
      {"sequence": "ACCGATGA", "PBM E-score": 0.0788},
      {"sequence": "ATACAACC", "PBM E-score": 0.0786},
      {"sequence": "CGTTTGGC", "PBM E-score": -0.0178},
      {"sequence": "AGGTTGTG", "PBM E-score": -0.0294},
      {"sequence": "ATGGCCGC", "PBM E-score": -0.122},
      {"sequence": "CACGTAGA", "PBM E-score": 0.39},
      {"sequence": "CGACTAAC", "PBM E-score": 0.0121},
      {"sequence": "GAACCCCA", "PBM E-score": -0.149},
      {"sequence": "CCGATCTC", "PBM E-score": -0.302},
      {"sequence": "CGGTACAG", "PBM E-score": -0.188},
      {"sequence": "AGTGAATC", "PBM E-score": -0.0157},
      {"sequence": "CGGTTAAG", "PBM E-score": -0.0415},
      {"sequence": "AAGGACCT", "PBM E-score": -0.286},
      {"sequence": "GAATCCCC", "PBM E-score": -0.347},
      {"sequence": "CACATCCG", "PBM E-score": -0.0558},
      {"sequence": "GCAAGAGC", "PBM E-score": -0.0717},
      {"sequence": "CGATGACG", "PBM E-score": 0.482},
      {"sequence": "GCCAGTCA", "PBM E-score": -0.26},
      {"sequence": "ACTCAGTC", "PBM E-score": -0.156},
      {"sequence": "AGCATAAT", "PBM E-score": 0.198},
      {"sequence": "GCCCTCTA", "PBM E-score": -0.299},
      {"sequence": "GCAGGGCA", "PBM E-score": -0.196},
      {"sequence": "ACGCTCAG", "PBM E-score": -0.133},
      {"sequence": "AAAACATG", "PBM E-score": 0.0449},
      {"sequence": "CAGTTACA", "PBM E-score": 0.0781},
      {"sequence": "GCGATTCA", "PBM E-score": -0.0266}
    ]}
  ]
}
